Experimental data from the supplement of paper PMC3334620.
Over roughly 33,000 sequences, “E-score (-0.5 to 0.5)” has its median near -0.012; the highest 2% begin near 0.29. Some of the results follow.

Target: T1, Ybr033w (UniProt P38073)
T1 sequence: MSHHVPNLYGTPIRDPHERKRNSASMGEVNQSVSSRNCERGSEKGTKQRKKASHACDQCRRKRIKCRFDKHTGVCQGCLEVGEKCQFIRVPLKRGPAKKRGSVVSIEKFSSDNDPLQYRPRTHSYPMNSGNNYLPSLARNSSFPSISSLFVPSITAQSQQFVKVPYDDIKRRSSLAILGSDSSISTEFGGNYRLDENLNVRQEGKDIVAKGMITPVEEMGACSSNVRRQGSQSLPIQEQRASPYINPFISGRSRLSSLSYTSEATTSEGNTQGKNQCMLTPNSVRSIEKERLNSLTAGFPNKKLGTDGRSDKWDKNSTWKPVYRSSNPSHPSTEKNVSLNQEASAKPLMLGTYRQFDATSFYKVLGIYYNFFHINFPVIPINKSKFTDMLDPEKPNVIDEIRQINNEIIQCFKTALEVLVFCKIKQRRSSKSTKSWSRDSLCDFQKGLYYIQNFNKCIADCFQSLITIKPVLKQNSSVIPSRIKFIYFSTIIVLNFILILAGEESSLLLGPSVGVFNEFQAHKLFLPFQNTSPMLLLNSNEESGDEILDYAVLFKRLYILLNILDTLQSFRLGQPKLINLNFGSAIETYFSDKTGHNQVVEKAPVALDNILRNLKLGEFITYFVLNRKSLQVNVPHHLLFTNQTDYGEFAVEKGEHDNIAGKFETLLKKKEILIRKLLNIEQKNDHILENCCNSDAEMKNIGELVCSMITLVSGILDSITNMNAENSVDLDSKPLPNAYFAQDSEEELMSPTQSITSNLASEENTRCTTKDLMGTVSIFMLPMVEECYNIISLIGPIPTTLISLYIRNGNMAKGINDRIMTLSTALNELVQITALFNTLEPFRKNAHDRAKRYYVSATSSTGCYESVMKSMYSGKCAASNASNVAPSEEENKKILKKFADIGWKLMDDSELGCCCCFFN
Assay: PBM E-score (8-mer binding enrichment) (E-score (-0.5 to 0.5)); higher = stronger / more preferred TF binding; most listed sequences are background and not binding sites
Conditions: protein concentration: 200 nM; construct: GST-full length
How it was run: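 For each ungapped eight-base word taken together with its reverse complement, the Universal PBM Analysis Suite assigned an E-score. Binding data came from GST-tagged yeast transcription factors, applied at about 100-200 nM, on universal all-10-mer Agilent arrays made double-stranded by primer extension. Fluorescent anti-GST marked bound protein, and scans were normalised with masliner.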

Sequence | PBM E-score
CGATCGGC | -0.148
GGACTAAA | -0.0918
AATCAGAG | 0.102
AAAGTCGC | 0.105
ATCTATCG | -0.0539
AAGCCCCA | -0.307
ATTTTCTG | 0.0635
ACGGAGCT | -0.171
AGCAAGTC | 0.0884
ATAACTGC | 0.193
ACCGCACA | -0.0964
AAAGGCTA | 0.0506
ACCTATTC | -0.11
GTCATTGA | 0.0912
AAATCGGA | 0.153
GATTCTAA | 0.031
AAGTCCGG | 0.00798
AGTAAGAG | -0.092
TAAACTGA | 0.136
AACATAGG | 0.0261
CACACCGC | -0.0805
GCGTCACA | -0.131
CCTCCAAA | -0.0989
ACGTCGGC | -0.18
ACGCTCGA | -0.0783

Sequence | PBM E-score
GCTGCGCA | -0.0339
AGTTGTAG | 0.205
ACAAGGGA | -0.105
GCTAAGTA | 0.0835
CCTTTGCA | 0.0151
AGCGGCCT | -0.16
AGCTGACA | -0.103
CCGTATTC | -0.0621
GAGAGGGA | -0.289
ATCCCTAC | 0.159
CAATAGAC | 0.00862
AGCTAACA | 0.0799
CCGTTAGG | -0.109
AGGCCAAT | -0.0717
ACATCCCA | 0.0545
GACGCCCA | -0.184
AAGGCGTG | -0.2
CGACCCTC | -0.184
GGCTTTGA | 0.0919
AACTAAGG | 0.0802
CTAATAAA | 0.28
GAGAAGCA | -0.0833
AGGCGAAC | -0.159
TGTGAACA | 0.0644
TACGTAAA | 0.141

Sequence | PBM E-score
GTCGACAC | -0.126
CATCGTAC | 0.0156
CGGGTCAA | -0.0721
CACCTTAA | -0.00695
GTGTTGGA | -0.0271
TGGTCAAA | 0.226
CCAGCCCC | -0.236
AATTATGG | 0.0687
ATATTCAG | 0.1
ATGAGTCA | -0.0786
CCCACCAG | -0.142
ACGGGACG | -0.222
AATCAGGG | -0.103
GTCAGCGA | -0.163
ATGAATTG | 0.246
GCACCCCA | -0.164
AGGTCTAA | 0.063
ACATGCCC | 0.00011
ACAATCGC | 0.115
CCCGTAGA | -0.206
ACCACGGT | -0.168
CAAGTCCG | -0.0949
AAATATGT | 0.252
AAAATACT | 0.301
CCAATGGG | -0.304

Sequence | PBM E-score
AGACCTTA | 0.091
TATAATAA | 0.318
TTTCCAAA | 0.204
AGATTACG | 0.0369
AATTTATG | 0.317
GATTTTGA | 0.161
CACGGCCG | -0.311
CATACGCA | 0.156
AGGACGAC | -0.212
GTTGATGA | 0.207
ACTCATGA | 0.143
CATTCTCA | 0.111
TATATAAA | 0.282
ACCTCACC | -0.0696
CATCCGCA | 0.156
CGACGACG | -0.226
CTTTATTA | 0.191
TGGGTCAA | -0.109
AGGCAAGA | -0.0369
AAACTTAT | 0.379
ACTCGCGC | -0.142
ATCTCTTC | 0.0612
GAGAGTTA | -0.092
CGAAAATA | 0.23
CCATTACC | -0.0903

Sequence | PBM E-score
AGATCAGC | 0.0383
CAAGCTAG | -0.0383
CGCGACGA | 0.0136
AGAGTAGA | 0.0714
AGGTCGCC | -0.249
CAAACACA | 0.241
CACGTTCC | -0.0658
ATGAAGCG | -0.253
CATCTAGC | -0.023
ACCGGTTC | -0.229
AGCGTGAC | -0.158
CAGGAACC | -0.122
CTCTTCCC | -0.162
CACGTCAA | -0.0938
AATTGGTC | 0.156
AGATCTAT | 0.171
ATATCCAT | 0.196
ACGCCATG | -0.0752
AAGCTTGG | -0.0215
AACCACCT | 0.0762
CGCTGGTA | 0.00123
AGGAGGAA | -0.00188
AACGATCG | 0.132
ATACTGGG | -0.198
AACTAGTC | 0.0207

Sequence | PBM E-score
ACCCAAGT | 0.0221
AACAACGC | -0.0677
CGGTCCAG | -0.287
ATATATGA | 0.0895
AATATTAA | 0.349
AGCCTAAT | 0.0669
GACGTACC | -0.0667
CTTTCGTA | -0.0115
ACGCTAGG | -0.26
GCCAGGCA | -0.0766
GTATGATA | 0.234
CACCCTTA | -0.0756
ACGTCAAA | 0.06
CGGGTACC | -0.326
ATCCGTCC | -0.122
GAAACTTC | 0.112
ATTTCCAC | 0.241
ATTAAAGG | 0.193
AGCTCTTG | -0.0846
ACGAACCG | -0.0547
CCCTTACC | -0.131
ACGGCGGC | -0.224
AGTGCTGA | -0.0389
AAGTATCG | 0.0646
CCCAGCCC | -0.342

Sequence | PBM E-score
CCGCTAAA | -0.117
GGATCCAA | 0.0247
GCATTGCC | -0.0687
CGCGGAAG | -0.0837
GGAACGTA | -0.056
AATAACTC | 0.233
AATAGTTC | 0.294
ACCGGTGC | -0.265
CGATCATC | 0.00087
TTGCACAA | 0.129
AGGCTAGG | -0.254
AAGGCGGT | -0.0232
AGCATGTG | 0.013
CATGATGA | 0.114
TACGCGAA | -0.0299
AAGGGGGA | -0.298
AGGTCTTG | -0.128
CGGAGGAA | -0.048
TGGCAACA | 0.0334
ATTGTATA | 0.273
AATCCAGT | 0.15
CAACAGGC | -0.14
